The source of these data is paper PMC4336329 (PLoS ONE, 2015).

Molecules are shown by their SMILES. The whole screen tested about 310,000 compounds, of which about 2,200 (0.71%) showed an effect of 50% or more. Effects have a minus sign here. The list shows a part of the results.

The target of the test is human ether-à-go-go-related gene (hERG) potassium channel (human, UniProt Q12809). Description: primary screen, population patch clamp on CHO cells stably expressing hERG.
Chain of human ether-à-go-go-related gene (hERG) potassium channel (Q12809 whole entry, looked up): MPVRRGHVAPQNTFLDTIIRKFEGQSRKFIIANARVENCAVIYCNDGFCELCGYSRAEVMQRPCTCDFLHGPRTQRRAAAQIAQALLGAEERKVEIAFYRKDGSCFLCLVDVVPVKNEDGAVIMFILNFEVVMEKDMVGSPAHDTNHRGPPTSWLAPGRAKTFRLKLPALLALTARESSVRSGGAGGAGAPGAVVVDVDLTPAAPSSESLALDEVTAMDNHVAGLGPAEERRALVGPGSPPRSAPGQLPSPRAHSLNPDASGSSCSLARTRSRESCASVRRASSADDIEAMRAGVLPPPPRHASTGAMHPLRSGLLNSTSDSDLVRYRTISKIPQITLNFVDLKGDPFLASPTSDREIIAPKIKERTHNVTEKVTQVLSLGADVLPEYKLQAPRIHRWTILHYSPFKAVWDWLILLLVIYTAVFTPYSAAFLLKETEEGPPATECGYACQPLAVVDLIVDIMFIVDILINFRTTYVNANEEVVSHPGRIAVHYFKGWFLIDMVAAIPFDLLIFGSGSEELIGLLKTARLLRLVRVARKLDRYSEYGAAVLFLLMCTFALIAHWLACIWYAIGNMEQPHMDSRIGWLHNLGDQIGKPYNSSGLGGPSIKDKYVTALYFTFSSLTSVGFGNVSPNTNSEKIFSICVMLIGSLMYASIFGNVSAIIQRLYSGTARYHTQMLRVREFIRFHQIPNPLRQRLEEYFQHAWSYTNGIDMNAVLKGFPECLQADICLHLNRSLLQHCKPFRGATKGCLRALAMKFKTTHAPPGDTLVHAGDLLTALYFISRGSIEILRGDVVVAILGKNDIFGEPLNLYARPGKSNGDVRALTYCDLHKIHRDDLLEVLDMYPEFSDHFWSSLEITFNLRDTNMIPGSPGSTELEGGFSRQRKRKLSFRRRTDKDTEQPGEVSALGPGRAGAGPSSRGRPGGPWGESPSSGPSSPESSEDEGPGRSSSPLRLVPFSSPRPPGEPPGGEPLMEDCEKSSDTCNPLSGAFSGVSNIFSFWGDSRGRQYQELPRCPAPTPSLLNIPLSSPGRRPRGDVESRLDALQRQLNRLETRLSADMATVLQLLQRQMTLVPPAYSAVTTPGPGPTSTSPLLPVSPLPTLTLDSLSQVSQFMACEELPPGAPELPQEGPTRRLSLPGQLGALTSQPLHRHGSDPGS
For `CC(C)(C)C(=O)C(CO)(Oc1ccc(Cl)cc1)n1cncn1` (stereo not shown), the “hERG current change (%, negative = inhibition) at 1uM” value is 16.1%.
With `Cc1ncc(CN2CCN(C3CCCC3)C(CCO)C2)s1` (stereo not shown), the “hERG current change (%, negative = inhibition) at 1uM” value came to 8.7%.
With `Cc1cc(O)cc(=O)n1Cc1ccccc1`, the “hERG current change (%, negative = inhibition) at 1uM” value is given as 12.6%.
Take `COc1ccc(-c2cc(C(=O)NCCCN3CCCC3=O)c3ccccc3n2)cc1`: the “hERG current change (%, negative = inhibition) at 1uM” value is 10%.
The same measure for `Cc1n[nH]c(=O)n1-c1cccc(C(F)(F)F)c1`: 10.6%.
For `COc1ccc(OC)c(S(=O)(=O)Nc2c(C)nn(C)c2C)c1`, the “hERG current change (%, negative = inhibition) at 1uM” value came out at 11.3%.
Turning to `COc1ccc(S(=O)(=O)NCCC(=O)N2CCCN(C)CC2)cc1`, the “hERG current change (%, negative = inhibition) at 1uM” value turned out to be 0.682%.
Regarding `Cn1c(CNC(=O)CNC(=O)c2cccc(F)c2)cc(=O)n(C)c1=O`, the “hERG current change (%, negative = inhibition) at 1uM” value was 21.2%.
Turning to `CCN(CC)CCCN(C(=O)c1cccs1)c1nc(-c2ccc(OC)cc2)cs1`, the “hERG current change (%, negative = inhibition) at 1uM” value is listed as -71.8%.
In the case of `COc1ccc(-c2csc(N(CC3CCCO3)C(=O)c3ccco3)n2)cc1` (stereo not shown), the “hERG current change (%, negative = inhibition) at 1uM” value is on record as -8.94%.
Under `CCSc1nnc(NC(=O)C2CCN(S(=O)(=O)c3cc(C(F)(F)F)ccc3Cl)CC2)s1` stands 0.203%; under `Cc1cc(-c2ccccc2)oc(=O)c1NC(=O)c1ccccc1`, 12.2%; under `COc1ccc(C2C(C(C)=O)=C(O)C(=O)N2c2nccs2)c(OC)c1` (stereo not shown), 8.99%.
Turning to `Cc1[nH]c(=O)[nH]c(=O)c1S(=O)(=O)N1CCCC(C(=O)N2CCN(c3ccccc3Cl)CC2)C1` (stereo not shown), the “hERG current change (%, negative = inhibition) at 1uM” value amounted to 11.7%.
Under `COc1ccc(CN2C(=O)c3ccccc3C2=O)cc1C(=O)Nc1ccccc1N1CCOCC1` stands 4.03%.
As to `CCC1(c2ccccc2)NC(=O)N(CC(=O)Nc2cc(C(F)(F)F)ccc2N2CCCC2)C1=O` (stereo not shown), the “hERG current change (%, negative = inhibition) at 1uM” value amounted to 11.6%.
The same measure for `Cn1c(NC(=O)c2ccc(Cl)cc2)cc(=O)n(C)c1=O`: 23.2%; for `CC(C)(C)c1cc(NC(=O)c2cc(F)c(F)c(F)c2F)no1`: 11.6%; for `COCCNC(=O)Cn1cc(C(=O)c2cccs2)c2ccccc21`: 13.9%.
Take `CC1=CC(C)(C)N=C(Nc2nc(C)c3cc(C)cc(C)c3n2)N1`: the “hERG current change (%, negative = inhibition) at 1uM” value was -18.8%.
Regarding `COc1cccc(-c2c(C(=O)N/N=C(\C)c3cccs3)nnn2-c2nonc2N)c1`, the “hERG current change (%, negative = inhibition) at 1uM” value came out at 10.1%.
As for `Cc1onc(-c2ccccc2)c1-c1ccnn1S(=O)(=O)c1ccc(Cl)cc1`, the “hERG current change (%, negative = inhibition) at 1uM” value was found to be 11.3%.
As to `CCOC(=O)C1C(=O)CC(C)(O)C(C(=O)OCC)C1c1cccc(OC)c1` (stereo not shown), the “hERG current change (%, negative = inhibition) at 1uM” value is 4.27%.
For `O=C(NCc1cccs1)Nc1cc(Cl)ccc1Cl`, the “hERG current change (%, negative = inhibition) at 1uM” value amounted to 9.81%.
As for `Cc1cc(=O)oc(C)c1C(=O)Nc1ccc(Cl)cn1`, the “hERG current change (%, negative = inhibition) at 1uM” value came to 16.9%.
Under `COc1cc(C(=O)OCC(=O)c2ccc(S(=O)(=O)N3CCCCC3)cc2)cc(OC)c1OC` stands 10.7%.
Turning to `CCN(C(=O)COC(=O)c1cc(-c2ccccc2)nc2ccc(Br)cc12)C1CCS(=O)(=O)C1` (stereo not shown), the “hERG current change (%, negative = inhibition) at 1uM” value was determined as 9.12%.
The same measure for `O=C(O)CC(Cc1ccc(Cl)cc1)C(=O)Nc1ccccc1` (stereo not shown): 11.5%; for `O=C(NCCCCc1ccccc1)c1cccc(Br)c1`: 10.1%.
On to `COc1ccccc1C(c1nnnn1C(C)(C)C)N1CCCCCC1` (stereo not shown), for which the “hERG current change (%, negative = inhibition) at 1uM” value is reported as 2.35%.
`O=C(CSc1nc(O)c(Cc2ccccc2)c(=O)[nH]1)Nc1nnc(SCc2ccccc2)s1`: the “hERG current change (%, negative = inhibition) at 1uM” value turned out to be 16.2%.
The same measure for `OCCSc1nncn1/N=C/c1c[nH]c2ccccc12`: 4.35%; for `O=C(O)C1Sc2[nH]c(=O)sc2C2c3ccc(O)cc3OC(=O)C12` (stereo not shown): 18.4%.
As to `C[C@]12CCC(=O)CC1=CCC1C3CC=C(C#N)[C@@]3(C)CC[C@@]12O` (stereo partly shown), the “hERG current change (%, negative = inhibition) at 1uM” value is on record as 15.3%.
Regarding `Cc1cc(NC(=O)NC(C(F)(F)F)C(F)(F)F)no1`, the “hERG current change (%, negative = inhibition) at 1uM” value stood at 16.7%.
In the case of `O=C(Nc1cccc(Cl)c1)C1COc2ccccc2O1` (stereo not shown), the “hERG current change (%, negative = inhibition) at 1uM” value is 14%.
In the case of `COc1ccc(O)c(C2NC(CC(C)C)(C(=O)O)C3C(=O)N(Cc4ccccc4)C(=O)C23)c1` (stereo not shown), the “hERG current change (%, negative = inhibition) at 1uM” value is reported as 3.62%.
`Cc1ccc(/C=C(/NC(=O)c2ccccc2)C(=O)NCCc2c[nH]c3ccccc23)o1`: the “hERG current change (%, negative = inhibition) at 1uM” value is -0.241%.
`CCN(CC)CC(O)Cn1c(-c2cccc(Cl)c2)nc2cc(C)c(C)cc21` (stereo not shown): the “hERG current change (%, negative = inhibition) at 1uM” value is on record as -26.6%.
For the compound `Cc1nc2cc(Cl)ccc2n1CCO`, the “hERG current change (%, negative = inhibition) at 1uM” value was 0.961%.
Take `O=C(NNC(=S)NC(=O)c1ccco1)c1ccc(F)cc1`: the “hERG current change (%, negative = inhibition) at 1uM” value is reported as 13.5%.
The same measure for `COc1ccc2ccc(O)c(CN3CCN(S(=O)(=O)c4cccc(C(F)(F)F)c4)CC3)c2c1`: 9.77%; for `Cc1ccc(-n2cc(CNC(C)c3cnn(C)c3C)c(-c3ccc(F)cc3)n2)cc1` (stereo not shown): 2.45%; for `Cc1ccccc1NC(=O)C[n+]1cc(-c2ccccc2)n2c1CCC2.[Cl-]`: 15.6%.
On to `CCCCC(=O)N/N=C/c1sccc1C`, for which the “hERG current change (%, negative = inhibition) at 1uM” value came out at 8.42%.
For `CCOc1ccc(NC(=O)c2cc(Cl)nc3ccccc23)cc1`, the “hERG current change (%, negative = inhibition) at 1uM” value is 11.4%.
The same measure for `CC(C)(C)c1ccc(NC(=O)N2CCCN(c3c(Cl)cncc3Cl)CC2)cc1`: 13.6%.
The same measure for `COc1ccccc1N1CC(C(=O)Nc2nnc(SCc3cccnc3)s2)CC1=O` (stereo not shown): 12.1%; for `O=C(O)c1cccc(NC(=O)N2C[C@H]3C[C@@H](C2)c2cccc(=O)n2C3)c1`: 11.4%.
For the compound `COC(=O)c1ccc(C(C(=O)NC2CCCCC2)N(C(=O)Cc2cccs2)C2CC2)cc1` (stereo not shown), the “hERG current change (%, negative = inhibition) at 1uM” value is 4.84%.
For the compound `O=C(O)c1ccc2c(c1)ncn2C1CCCCCC1`, the “hERG current change (%, negative = inhibition) at 1uM” value is on record as 9.43%.
Take `CCCCN(CCCC)CCCNC(=O)CC1Oc2ccc(C)cc2NC1=O` (stereo not shown): the “hERG current change (%, negative = inhibition) at 1uM” value is -21.2%.
On to `COC(=O)Cn1cnc2scc(-c3ccc(C)c(C)c3)c2c1=O`, for which the “hERG current change (%, negative = inhibition) at 1uM” value came out at 11.1%.
With `C=CCn1c(SCc2c(C)noc2C)nc2cc(C(=O)O)ccc2c1=O`, the “hERG current change (%, negative = inhibition) at 1uM” value was -5.69%.
Consider `CCc1cc2c(SCC(=O)c3ccccc3)ncnc2s1`, for which the “hERG current change (%, negative = inhibition) at 1uM” value was 10.8%.
As to `Cc1ccc(CO/N=C\Cc2snc(Sc3ncc(C(F)(F)F)cc3Cl)c2C#N)cc1`, the “hERG current change (%, negative = inhibition) at 1uM” value was determined as 11.6%.
Take `COc1cccc(-n2nnnc2SCC(=O)NCCc2ccc(OC)c(OC)c2)c1`: the “hERG current change (%, negative = inhibition) at 1uM” value is 7.68%.
Regarding `COc1ccc(C2(C(=O)N3CCCC3)CCOCC2)cc1OC`, the “hERG current change (%, negative = inhibition) at 1uM” value came out at 10.7%.
Under `Cc1ccc2c(c1)C(O)(CC(=O)c1ccc(C)s1)C(=O)N2` (stereo not shown) stands 14.1%; under `O=C1CCC(C(=O)Nc2cccc(Br)c2)N1` (stereo not shown), 6.95%; under `CS(=O)(=O)N1CCN(CCN2C(=O)c3cccc4cccc(c34)C2=O)CC1`, 9.23%.
With `COc1ccc(CCNC(=O)CCS(=O)(=O)Cc2ccccc2C)cc1OC`, the “hERG current change (%, negative = inhibition) at 1uM” value was determined as 12.2%.
As to `CC(C)CNS(=O)(=O)c1ccc(CCC(=O)N2CCN(Cc3ccc4c(c3)OCO4)CC2)cc1`, the “hERG current change (%, negative = inhibition) at 1uM” value is listed as -13.4%.
As to `COc1ccccc1S(=O)(=O)Cc1ccc(C(=O)NCC2CCCO2)o1` (stereo not shown), the “hERG current change (%, negative = inhibition) at 1uM” value is 6.05%.
On to `COc1ccc(OCCN2CCN(S(=O)(=O)c3ccccc3C(F)(F)F)CC2)cc1`, for which the “hERG current change (%, negative = inhibition) at 1uM” value is 5.15%.
Turning to `CN1CCN(C(=O)c2ccc(-n3cccc3)cc2)CC1`, the “hERG current change (%, negative = inhibition) at 1uM” value is -5.17%.
For the compound `Cc1ccc(C(=O)O)cc1NCc1ccncc1`, the “hERG current change (%, negative = inhibition) at 1uM” value is 13.7%.
For `CON(C)S(=O)(=O)c1cccc(C(=O)Oc2ccc(N(C)S(=O)(=O)c3ccccc3)cc2)c1`, the “hERG current change (%, negative = inhibition) at 1uM” value is reported as 15.2%.
On to `NC(=S)Nc1c(Cl)cccc1Cl`, for which the “hERG current change (%, negative = inhibition) at 1uM” value worked out at 14.1%.
Regarding `Cc1ccc(S(=O)(=O)N2CCCCC2)cc1NC(=O)CSCC(=O)O`, the “hERG current change (%, negative = inhibition) at 1uM” value was 15.3%.
As for `CCOC(=O)CCn1c(=S)n(CCC(=O)OCC)c2ccccc21`, the “hERG current change (%, negative = inhibition) at 1uM” value is -8.49%.
On to `O=C1/C(=C/c2cccnc2)SC(=S)N1NS(=O)(=O)c1ccccc1`, for which the “hERG current change (%, negative = inhibition) at 1uM” value amounted to 11.5%.
`CNC(=O)CSc1nnc(-c2ccco2)n1-c1cccc(OC)c1`: the “hERG current change (%, negative = inhibition) at 1uM” value is recorded as 6.6%.
Consider `CC(O)c1cccc(NC(=O)C2CCCCC2)c1` (stereo not shown), for which the “hERG current change (%, negative = inhibition) at 1uM” value was determined as 23.7%.
The same measure for `COc1ccc(CCNC(=O)c2cc3c(=O)n4ccccc4nc3n(C3CCCCC3)c2=N)cc1OC`: -61.9%.
As to `COc1cc(OC)cc(C(=O)Nc2nc(CC(=O)NCc3ccccc3OC)cs2)c1`, the “hERG current change (%, negative = inhibition) at 1uM” value amounted to 8.8%.
For `COc1ccc(C(=O)NC2CCCCC2)cc1S(=O)(=O)N1CCCC1`, the “hERG current change (%, negative = inhibition) at 1uM” value is reported as 0.624%.
Take `CC1C=CCC2C(=O)N(c3cccc(C(=O)N4CCN(c5ccc(F)cc5)CC4)c3)C(=O)C12` (stereo not shown): the “hERG current change (%, negative = inhibition) at 1uM” value is 2.03%.
Under `Cc1ccc(C(=O)NNS(=O)(=O)c2ccc(F)cc2)cc1` stands 9.21%; under `Cc1ccc(NC(=O)CN2C(=O)COc3ccc(S(=O)(=O)N4CCCC4)cc32)cc1C`, 12.3%; under `CCOc1ccc2nc3c(cc2c1)CN(CCOC)C(=NC)S3.Cl`, 11.5%.
`Cc1cc(C)cc(N(CCC(=O)O)S(=O)(=O)c2ccc(Cl)cc2)c1`: the “hERG current change (%, negative = inhibition) at 1uM” value came to 7.38%.
Consider `CSc1ccccc1C(=O)Nc1cccc(N(C)S(C)(=O)=O)c1`, for which the “hERG current change (%, negative = inhibition) at 1uM” value came out at 7.96%.
With `CC(C)(C)OC(=O)CN1C(=O)NC2(CCCc3ccccc32)C1=O` (stereo not shown), the “hERG current change (%, negative = inhibition) at 1uM” value amounted to 8.18%.
Consider `CC(C)C(=O)Nc1ccc(-c2nc3cccnc3o2)cc1`, for which the “hERG current change (%, negative = inhibition) at 1uM” value amounted to 16.5%.
Take `Cc1ccsc1C(=O)NCCc1c[nH]c2ccccc12`: the “hERG current change (%, negative = inhibition) at 1uM” value is given as 11.2%.
Turning to `Cc1cc(/C=C2\C(=O)NC(=O)N(c3cccc(F)c3)C2=O)c(C)n1-c1ccc(C(=O)O)c(Cl)c1`, the “hERG current change (%, negative = inhibition) at 1uM” value is listed as 12.8%.
With `Cc1ccc(C)c2c1cc(C)c1nnc(SCC(=O)N3CCCc4ccccc43)n12`, the “hERG current change (%, negative = inhibition) at 1uM” value amounted to 0.287%.
